Results on 23 molecules are retold here after the supplement of paper PMC11369174, “Proteome-scale characterisation of motif-based interactome rewiring by disease mutations” (Molecular Systems Biology, 2024).

Residue numbers refer to the chain shown, from its start. In names and notes the source's numbering stands. The list shows a part of the results. The data scatter; read single values as rough.

To fix the notation:
T1: GGA1_VHS__Q9UJY5_1_157
T1 chain: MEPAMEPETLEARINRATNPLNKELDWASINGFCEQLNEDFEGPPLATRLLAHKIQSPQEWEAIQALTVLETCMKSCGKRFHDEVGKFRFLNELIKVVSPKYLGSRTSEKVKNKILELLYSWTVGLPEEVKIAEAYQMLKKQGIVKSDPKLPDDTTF

T2: RDX_FERM_1_P35241_5_295
T2 chain: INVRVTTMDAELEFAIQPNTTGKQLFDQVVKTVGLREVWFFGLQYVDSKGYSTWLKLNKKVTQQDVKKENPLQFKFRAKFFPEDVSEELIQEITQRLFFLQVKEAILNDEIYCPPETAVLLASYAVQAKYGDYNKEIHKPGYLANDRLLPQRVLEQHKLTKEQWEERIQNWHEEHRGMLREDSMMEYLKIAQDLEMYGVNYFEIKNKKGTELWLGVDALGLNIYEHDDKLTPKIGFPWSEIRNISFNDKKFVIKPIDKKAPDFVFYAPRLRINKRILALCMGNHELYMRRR

T3: GGA3_VHS__Q9NZ52_1_166
T3 chain: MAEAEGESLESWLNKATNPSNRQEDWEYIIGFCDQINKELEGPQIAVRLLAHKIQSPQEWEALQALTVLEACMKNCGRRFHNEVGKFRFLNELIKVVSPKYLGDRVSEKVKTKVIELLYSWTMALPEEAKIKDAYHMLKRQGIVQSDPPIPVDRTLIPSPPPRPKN

T4: GEF_Sec7__Q9Y6D5_639_829
T4 chain: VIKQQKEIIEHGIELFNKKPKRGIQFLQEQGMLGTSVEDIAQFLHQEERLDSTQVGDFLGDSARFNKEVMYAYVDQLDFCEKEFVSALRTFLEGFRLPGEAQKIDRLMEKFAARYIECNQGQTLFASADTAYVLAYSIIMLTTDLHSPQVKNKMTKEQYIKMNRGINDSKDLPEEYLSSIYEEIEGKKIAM

B1: S492Y S492Y (peptide)
chain: MNMFQAPTLPDISDDKDEWQYLDQNEDAFEAQFQKNVRSSG
B2: E237K E237K (peptide)
chain: IQDSFASPDLPLLTCLTQDQKFAPDSLFHQSELSFAPLRGI
B3: L13P L13P (peptide)
chain: MAFYSCCWVLLALTWHTSAYPPDQRAQKKGDII
B4: Q133H Q133H (peptide)
chain: PSRAVRQSVTSFPDADAFHHHVHDDDLLSSSEEECKDRERP
B5: F61L F61L (peptide)
chain: PTAEEEALIEFHRSYRELFELFCNNTTIHGAIRLVCSQHNR
B6: V560D V560D (peptide)
chain: VMILTYKYLQKPMYEVQWKVDEEINGNNYVYIDPTQLPYDH
B7: V560G V560G (peptide)
chain: B6 chain with D21G
B8: Y48D Y48D (peptide)
chain: GEGLFEYDLLPFLSSTISPYDRQSLFRTVLDSGISEVRSDR
B9: Y48H Y48H (peptide)
chain: B8 chain with D21H
B10: R282W R282W (peptide)
chain: TGDLDLLSAFRRTSLAGGGRWISDSHEDTGILDFSSLLKKR
B11: K558E K558E (peptide)
chain: IIVMILTYKYLQKPMYEVQWEVVEEINGNNYVYIDPTQLPY
B12: Y107C Y107C (peptide)
chain: EAPSQEQKNLAAIQEGENIFCLAVEDIETDTELLIGYLDSD
B13: C394S C394S (peptide)
chain: AVTPLKRAGWQCPECKVCQNSKQSGEDSKMLVCDTCDKGYH
B14: R416P R416P (peptide)
chain: QEYKILLDVKTRLEQEIATYPRLLEGEDAHLSSSQFSSGSQ
B15: E248K E248K (peptide)
chain: GMRIAWDDEETRDGFRLSSQKAASSFGDDRLLIEKFIDNPR
B16: V523E V523E (peptide)
chain: TTDMEDGPIVKLASNLGVEDENLLCGEELSYPNVFLVFLNG
B17: L1089I L1089I (peptide)
chain: ESKLTSQSRENTMLRAKVAQIQTDYDALKRQISTERYERER
B18: M1347R M1347R (peptide)
chain: LFGPKNDLEDYDADSDFEVLRKTAHGHLVPDRVDKDKEATK
B19: R1047Q R1047Q (peptide)
chain: KVQRETARKSQWKKWEVVAEQAWKGGTESEMFNKLESIATS
B20: R324Q R324Q (peptide)
chain: ISFDTEEERQQWEDDQRQADQDWYMMDEGYDEFHNPLAYSS
B21: S429Y S429Y (peptide)
chain: RNESLAQYNPKLDVKLLYPVYKYQQDQVVKEDNIEAVGKKL
B22: R54C R54C (peptide)
chain: YDLLPFLSSTISPYYRQSLFCTVLDSGISEVRSDRDKFVIF
B23: R670Q R670Q (peptide)
chain: ALQDTDDSDDDPVLIPGARYQAGPGDRRSAVARIQEFFRRR

GABARAPL2_ATG8__P60520_2_115, sequence (chain, as listed by the source): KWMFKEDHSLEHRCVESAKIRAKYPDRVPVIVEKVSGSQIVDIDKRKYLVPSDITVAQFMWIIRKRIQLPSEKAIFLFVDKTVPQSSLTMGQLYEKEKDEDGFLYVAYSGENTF

The first test addresses GABARAPL2_ATG8__P60520_2_115. The experiment in a line: mutation enrichment score (mutant vs wild-type peptide binding to bait); baits are purified protein domains named by gene / domain / UniProt id / residues; peptides come from disordered regions of human proteins; higher = mutation enhances binding relative to wild type. The conditions noted are these: number of wild-type / mutant comparisons summed (bounds the score): 6; paper call: no_effect; wild-type window: ….
Regarding B1, the mutation enrichment score came out at 1.
Consider B3, for which the mutation enrichment score was 3.
As for B5, the mutation enrichment score was -2.
On to B6, for which the mutation enrichment score came to 0.
Still for that read-out and setting: as for B7, the figure is 0; as for B8, -3.
Still for that read-out and setting: as for B9, the figure is -3.
Still for that read-out and setting: as for B11, the figure is 1; as for B14, 3.
B19: the mutation enrichment score was determined as 2.1.
Still for that read-out and setting: as for B22, the figure is -3.

For another test, the target named is MAP1LC3B_ATG8__Q9GZQ8_2_119. Described as above. Conditions: number of wild-type / mutant comparisons summed (bounds the score): 6; paper call: no_effect; wild-type window: ….
With B1, the mutation enrichment score is 4.

The target of a further test is T1, GGA1_VHS__Q9UJY5_1_157. The description is as above. Conditions: number of wild-type / mutant comparisons summed (bounds the score): 5; paper call: no_effect; wild-type window: ….
As to B2, the mutation enrichment score was -1.6.
B4: the mutation enrichment score was -2.5.
Same read-out and setting: as for B10, the figure is 5; as for B12, 5; as for B13, 2.
Take B15: the mutation enrichment score was -2.
The same measure, in the same setting: as for B16, the figure is 3.
The same measure, in the same setting: as for B21, the figure is -3; as for B23, 2.

In another test the target is T2, RDX_FERM_1_P35241_5_295. The test is described as above. The conditions noted are these: number of wild-type / mutant comparisons summed (bounds the score): 6; paper call: no_effect; wild-type window: ….
For B8, the mutation enrichment score worked out at 4.

The target of the next test is T3, GGA3_VHS__Q9NZ52_1_166. Described as above. Conditions: number of wild-type / mutant comparisons summed (bounds the score): 6; paper call: no_effect; wild-type window: ….
With B10, the mutation enrichment score worked out at 5.
For B12, the mutation enrichment score came out at 2.

The target in a further test is MAP1LC3A_ATG8__Q9H492_2_121. The test is described as above. The conditions noted are these: number of wild-type / mutant comparisons summed (bounds the score): 6; paper call: no_effect; wild-type window: ….
Turning to B14, the mutation enrichment score worked out at 4.

The target in a further test is T4, GEF_Sec7__Q9Y6D5_639_829. The description is as above. Conditions: number of wild-type / mutant comparisons summed (bounds the score): 6; paper call: no_effect; wild-type window: ….
On to B17, for which the mutation enrichment score was -2.

The next test has as its target GABARAPL1_ATG8__Q9H0R8_2_115. The description is as above. Conditions: number of wild-type / mutant comparisons summed (bounds the score): 18; paper call: no_effect; wild-type window: ….
Consider B18, for which the mutation enrichment score is -3.
As to B20, the mutation enrichment score turned out to be 1.

In another test the target is MAP1LC3A_ATG8__Q9H492_2_121. The description is as above. The conditions noted are these: number of wild-type / mutant comparisons summed (bounds the score): 12; paper call: diminished; wild-type window: ….
For B18, the mutation enrichment score was -6.

Another test deals with MAP1LC3B_ATG8__Q9GZQ8_2_119. Described as above. Conditions: number of wild-type / mutant comparisons summed (bounds the score): 18; paper call: diminished; wild-type window: ….
For the molecule B18, the mutation enrichment score was -8.9.
